Tests used:
[1] = system: antigen protein in SNU-5, BGC-823, MHCC-97L, BEL7402 V13 total proteins; test: Western Blotting of tumor cell total proteins; assay type: binding, human; settings: primary antibody 2 ug/ml
Protocol: Total proteins of 4 kinds of Hetumomab target antigen-positive human tumor cells SNU-5, BGC-823, MHCC-97L, BEL7402 V13 were extracted by conventional methods, and the protein concentrations were quantified by a BCA kit. An appropriate amount of the protein sample (20 μg) was separated by SDS-polyacrylamide gel electrophoresis and transferred to a PVDF membrane using a semi-dry electroporator. The PVDF membrane was then placed in blocking solution (TBST/5% skimmed milk powder) and incubated on a horizontal shaker at room temperature for 1 h. […] The membrane was then rinsed 5 times with TBST for 5 min each. Then the secondary antibody (1:2000 to 1:5000 dilution) against human IgG Fc-HRP or against mouse IgG Fc-HRP was added accordingly and incubated at room temperature for 1 h. The membrane was then rinsed 3 times with TBST for 5 min each, and then rinsed with PBS 3 times. Visualization was conducted.

MHCC-97L sphere cells = test: sphere-forming inhibition (self-renewal); assay type: cell-based, human
Protocol: (§1) The main manifestation of the self-renewal ability of tumor stem cells is the ability to form spheres in serum-free medium, which is called asymmetric division, that is, when one cell divides into two daughter cells, one of the daughter cells maintains the same features as the parental cell, while the other daughter cell may continue to divide, forming normal daughter cells. […] And then Hetumomab (250 μg/mL) was used as the experimental group, and the PBS was used as a negative control group to incubate with the cells at 37° C. for 2 h, during which the cells were mixed with the antibody or the negative control once every half an hour. 500 cells in each group were inoculated into a semi-solid sphere medium (containing EGF, LIF, bFGF, etc.) containing 0.8% methylcellulose, and cultured in an ultra-low adhesion 24-well plate. 1-1.5 mL liquid medium was added every other day, and the number of spheres formed from the two groups was observed after 14 days.

SNU-5 sphere cells = test: sphere-forming inhibition (self-renewal); assay type: cell-based, human
Protocol: as §1

BGC-823 sphere cells = test: sphere-forming inhibition (self-renewal); assay type: cell-based, human
Protocol: as §1

[2] = SNU-5, antibody 10 ug/ml, Table 27
[3] = SNU-5, antibody 10 ug/ml, Table 33
[4] = SNU-5, antibody 20 ug/ml, Table 27
[5] = SNU-5, antibody 20 ug/ml, Table 33
[6] = SNU-5, antibody 40 ug/ml, Table 27
[7] = SNU-5, antibody 40 ug/ml, Table 33
[8] = SNU-5, antibody 80 ug/ml, Table 27
[9] = SNU-5, antibody 80 ug/ml, Table 33
[10] = SNU-5, antibody 144 ug/ml, Table 27
[11] = SNU-5, antibody 160 ug/ml, Table 33
[12] = BGC-823, antibody 10 ug/ml, Table 27
[13] = BGC-823, antibody 10 ug/ml, Table 33

B1: Hetuximab: human-mouse chimeric antibody derived from Hetumomab; heavy chain SEQ ID NO:9, light chain SEQ ID NO:10 (antibody)
heavy: QVTLKESGPGILQPSQTLSLTCSFSGFSLSTSGMGVSWIRQPSGKGLEWLAHIYWDDDKRYNPSLKSRLTISKDSSNNQVFLKITSVDTADTATYYCARSFYYYANNSFAYWGQGTLVTVSS[human IgG1 constant region left out here]
light: DIVMTQAAFSNPVTLGTSASISCRSSKSLLHSNGITYLYWFLQKPGQSPQLLIYQMSNLASGVPDRFSSSGSGTDFTLRISRVEAEDVGVYYCAQNLELYTFGGGTKLEIKRTVAAPSVFIFPPSDEQLKSGTASVVCLLNNFYPREAKVQWKVDNALQSGNSQESVTEQDSKDSTYSLSSTLTLSKADYEKHKVYACEVTHQGLSSPVTKSFNRGEC
modifications: Hetuximab chimeric antibody heavy chain amino acid sequence; Hetuximab chimeric antibody light chain amino acid sequence
[1]
  Western blot recognition of the antigen protein: specifically bound to the antigen protein
MHCC-97L sphere cells; antibody 10 ug/ml, Table 27
  Average number of formed spheres: 191.5
  Inhibition Rate (%): 17.5%
MHCC-97L sphere cells; antibody 10 ug/ml, Table 33
  Average number of formed spheres: 201
  Inhibition Rate (%): 16.6%
MHCC-97L sphere cells; antibody 20 ug/ml, Table 27
  Average number of formed spheres: 169.5
  Inhibition Rate (%): 26.9%
MHCC-97L sphere cells; antibody 20 ug/ml, Table 33
  Average number of formed spheres: 175.5
  Inhibition Rate (%): 27.2%
MHCC-97L sphere cells; antibody 40 ug/ml, Table 27
  Average number of formed spheres: 152
  Inhibition Rate (%): 34.5%
MHCC-97L sphere cells; antibody 40 ug/ml, Table 33
  Average number of formed spheres: 159
  Inhibition Rate (%): 34.0%
MHCC-97L sphere cells; antibody 80 ug/ml, Table 27
  Average number of formed spheres: 140
  Inhibition Rate (%): 39.7%
MHCC-97L sphere cells; antibody 80 ug/ml, Table 33
  Average number of formed spheres: 146
  Inhibition Rate (%): 39.4%
MHCC-97L sphere cells; antibody 144 ug/ml, Table 27
  Average number of formed spheres: 120
  Inhibition Rate (%): 48.3%
MHCC-97L sphere cells; antibody 160 ug/ml, Table 33
  Average number of formed spheres: 117
  Inhibition Rate (%): 51.5%
SNU-5 sphere cells; [2]
  Average number of formed spheres: 175
  Inhibition Rate (%): 17.8%
SNU-5 sphere cells; [3]
  Average number of formed spheres: 207
  Inhibition Rate (%): 15.6%
SNU-5 sphere cells; [4]
  Average number of formed spheres: 161.5
  Inhibition Rate (%): 24.2%
SNU-5 sphere cells; [5]
  Average number of formed spheres: 183.5
  Inhibition Rate (%): 25.1%
SNU-5 sphere cells; [6]
  Average number of formed spheres: 145.5
  Inhibition Rate (%): 31.7%
SNU-5 sphere cells; [7]
  Average number of formed spheres: 169.5
  Inhibition Rate (%): 30.8%
SNU-5 sphere cells; [8]
  Average number of formed spheres: 134
  Inhibition Rate (%): 37.1%
SNU-5 sphere cells; [9]
  Average number of formed spheres: 149.5
  Inhibition Rate (%): 38.0%
SNU-5 sphere cells; [10]
  Average number of formed spheres: 114.5
  Inhibition Rate (%): 46.2%
SNU-5 sphere cells; [11]
  Average number of formed spheres: 120
  Inhibition Rate (%): 51.0%
BGC-823 sphere cells; [12]
  Average number of formed spheres: 201
  Inhibition Rate (%): 15.2%
BGC-823 sphere cells; [13]
  Average number of formed spheres: 208.5
  Inhibition Rate (%): 17.6%
BGC-823 sphere cells; BGC-823, antibody 20 ug/ml, Table 27
  Average number of formed spheres: 183
